Laboratory results published in PubChem BioAssay AID504339 (National Center for Advancing Translational Sciences (NCATS), 2011).
Screen size: about 390,000 compounds; about 17,000 (4.4%) were called active. The shares of active, inactive and inconclusive entries below differ from those in the screen. The call rests on the fitted dose curve; in most records, active means well fitted inhibition curve with a large enough effect; inconclusive means small, poorly fitted or top-dose-only effect; inactive means no such curve, though single readings can be large or run the other way. Potencies of inconclusive entries are doubtful fits and often do not repeat.

Molecular target: Lysine-specific demethylase 4A (Homo sapiens) (UniProt O75164)
Sequence of UniProt O75164 (O75164 whole entry, looked up, the tested form may be a part): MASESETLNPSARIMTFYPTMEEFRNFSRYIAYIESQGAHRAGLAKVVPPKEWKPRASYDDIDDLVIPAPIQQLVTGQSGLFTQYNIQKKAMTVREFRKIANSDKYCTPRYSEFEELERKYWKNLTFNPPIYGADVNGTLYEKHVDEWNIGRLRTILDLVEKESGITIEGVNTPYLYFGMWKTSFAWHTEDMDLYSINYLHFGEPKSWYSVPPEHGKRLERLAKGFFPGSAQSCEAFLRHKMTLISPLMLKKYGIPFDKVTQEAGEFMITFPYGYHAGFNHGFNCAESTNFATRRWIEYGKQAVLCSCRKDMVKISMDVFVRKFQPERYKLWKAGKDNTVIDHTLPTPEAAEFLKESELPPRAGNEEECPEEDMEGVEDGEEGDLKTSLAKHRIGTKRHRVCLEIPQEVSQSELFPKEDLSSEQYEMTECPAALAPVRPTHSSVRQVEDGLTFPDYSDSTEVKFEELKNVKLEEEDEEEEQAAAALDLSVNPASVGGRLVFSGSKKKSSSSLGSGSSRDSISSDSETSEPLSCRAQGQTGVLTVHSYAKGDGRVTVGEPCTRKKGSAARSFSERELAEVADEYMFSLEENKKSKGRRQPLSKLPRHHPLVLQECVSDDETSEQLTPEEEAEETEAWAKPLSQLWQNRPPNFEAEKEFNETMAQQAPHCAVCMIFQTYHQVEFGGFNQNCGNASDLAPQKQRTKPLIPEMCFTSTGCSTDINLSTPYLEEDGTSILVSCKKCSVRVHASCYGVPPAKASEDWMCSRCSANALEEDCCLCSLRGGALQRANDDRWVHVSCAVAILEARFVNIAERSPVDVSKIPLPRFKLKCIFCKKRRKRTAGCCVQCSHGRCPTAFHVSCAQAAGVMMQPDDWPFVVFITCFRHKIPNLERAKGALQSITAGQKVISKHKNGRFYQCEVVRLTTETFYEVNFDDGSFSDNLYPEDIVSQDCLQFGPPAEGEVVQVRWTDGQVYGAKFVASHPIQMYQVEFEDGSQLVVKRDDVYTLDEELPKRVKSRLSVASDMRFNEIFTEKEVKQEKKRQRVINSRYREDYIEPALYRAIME
Assay: qHTS Assay for Inhibitors of JMJD2A-Tudor Domain; further: nearly all actives have a fitted effect of over 50% in size
Conditions: AlphaScreen JMJD2A-Tudor / H3K4me3 peptide binding; series mostly up to 114 µM
Potency means the concentration at half of the fitted maximal effect; tags describe the fitted curve by direction and shape.

SMILES	Potency
Cc1cc(C(=O)OCC(=O)N2CC(C)OC(C)C2)c(C)n1-c1ccccc1 (stereo not given)	inconclusive: 89.1 µM [inhibitor, partial curve]
COc1cccc(C2=CC(c3ccccc3F)n3ncc(C(=O)Nc4ccc(C)cc4)c3N2)c1 (stereo not given)	inconclusive: 35.5 µM [inhibitor, partial curve]
CCC(=O)Nc1ccc(CC)cc1-c1nc2ccccc2n(CC(=O)Nc2cccc(OC)c2)c1=O	inactive
COc1ccc(/C=N/N2CCN(Cc3ccc(C)cc3)CC2)cc1Br	active: 50.1 µM
COC(=O)c1cc(-c2ccc(C)o2)nc2ccccc12	inconclusive: 31.6 µM [inhibitor, single point]
N#CCCN1CCN(CCC#N)C1=S	inactive
O=C(CSc1nnnn1C1CC1)N1CCN(c2ccc(O)cc2)CC1	inconclusive: 35.5 µM [inhibitor, full curve]
COc1ccc(S(=O)(=O)N2CCc3ccccc32)cc1C(=O)OCc1c(C)noc1C	inconclusive: 79.4 µM [inhibitor, single point]
CCn1c(C(=O)NCc2ccccc2OC)cc2sccc21	inconclusive: 100 µM [inhibitor, partial curve, poor fit]
COc1ccc(COc2cc(-c3cccc(OC)c3)nc3ccc(NC(C)=O)cc23)cc1	inconclusive: 56.2 µM [inhibitor, partial curve]
Cc1cc(C(=O)OC(C)C(=O)N2CCc3ccccc32)ccc1[N+](=O)[O-] (stereo not given)	inconclusive: 56.2 µM [inhibitor, partial curve]
CCC(C)Oc1cc(-c2ccnc(Nc3cccc(Cl)c3)n2)ccn1 (stereo not given)	inconclusive: 22.4 µM [inhibitor, full curve]
CCOc1ccc(NC2SC(=O)N(Cc3ccccc3)C2=O)cc1 (stereo not given)	inconclusive: 44.7 µM [inhibitor, partial curve]
O=C1C(=O)N(CCO)C(c2ccccc2[N+](=O)[O-])/C1=C(\O)c1ccccc1 (stereo not given)	inconclusive: 89.1 µM [inhibitor, single point]
CCN1CC2([N+](=O)[O-])C=CC(=O)C([N+](=O)[O-])(C1)C2CC(=O)c1ccccc1 (stereo not given)	inconclusive: 50.1 µM [inhibitor, partial curve]
Cc1ccc(Cl)cc1N1CCN(C(=O)Cc2cn(C)c3ccccc23)CC1	inconclusive: 20 µM [inhibitor, full curve]
O=[N+]([O-])c1cccc(NC(=S)N2CCN(S(=O)(=O)c3ccccc3)CC2)c1	inconclusive: 63.1 µM [inhibitor, partial curve, poor fit]
C#CCOCCOCCOCCNc1nc(N2CCOCC2)nc(N2CCN(C(=O)[C@H](CC(N)=O)n3cc(C(N)[C@@H](C)CC)nn3)CC2)n1 (stereo not given in full)	inactive
O=C1NC(c2ccccc2)=C(c2ccc3ccccc3n2)C(c2ccccc2)N1 (stereo not given)	inconclusive: 35.5 µM [inhibitor, single point]
COc1ccccc1OCCCCN1CCN(C(c2ccccc2)c2ccccc2)CC1	inconclusive: 44.7 µM [inhibitor, partial curve]
Cn1ccc(NC(=O)c2ccc(Cl)cc2Cl)n1	inactive
Cc1ccc(CN(CC(=O)N/N=C/c2ccccc2[N+](=O)[O-])S(=O)(=O)c2ccc(C)cc2)cc1	inconclusive: 56.2 µM [inhibitor, partial curve]

SMILES	Potency
Cc1cccn2cc(-c3c[nH]c4ccccc34)nc12	inconclusive: 31.6 µM [inhibitor, partial curve]
N#Cc1ccccc1OCC(=O)NNC(=O)CCNC(=O)c1ccccc1	inactive
Cc1ccc(C(=O)NC(=S)NCc2ccco2)cc1	inconclusive: 39.8 µM [inhibitor, partial curve]
Oc1cc(NCCN2CCOCC2)cc2cccnc12	active: 22.4 µM
CC(=O)Nc1sc2c(c1C(c1ccccc1Cl)N1CCN(CCO)CC1)CCCC2 (stereo not given)	inconclusive: 11.2 µM [inhibitor, full curve]
COc1ccc(/C=N/N2CCOCC2)cc1COc1ccc(F)cc1	inconclusive: 35.5 µM [inhibitor, single point]
CCOc1ccc(C2C(C(=O)Nc3ccccc3)=C(C)Nc3nc(SCc4cccc(OC)c4)nn32)cc1 (stereo not given)	inactive
Cc1ccc(C(=O)NCCN2C3=NC[C@H](Cc4ccc(O)cc4)N3C[C@H]2Cc2ccc(O)cc2)cc1Br	inconclusive: 50.1 µM [inhibitor, partial curve]
COc1ccc(S(=O)(=O)N2CCOCC2)cc1NC(=O)CN1C(=O)NC(C)(C2CC2)C1=O (stereo not given)	inactive
Cc1nn(C(C)C(=O)NC2CCC(C)CC2)c(=O)c2c1sc1ccccc12 (stereo not given)	inconclusive: 56.2 µM [inhibitor, partial curve]
Cc1cc(C)c2c(c1)c(C)cc1nnc(SCC(=O)c3cccs3)n12	inconclusive: 56.2 µM [inhibitor, partial curve]
CCc1nc(-c2cc(S(=O)(=O)N3CCN(c4ccc(OC)cc4)CC3)ccc2OC)no1	active: 79.4 µM
N#CC1=C(N)Oc2cc(O)c(C=Nc3ccccc3)cc2C1c1ccccc1 (stereo not given)	inconclusive: 89.1 µM [inhibitor, single point]
CCN(CC(=O)Nc1ccccc1OC)C(=O)c1cccc(-n2cccc2)c1	inconclusive: 56.2 µM [inhibitor, partial curve]
CN(C)CCOc1nc(-c2ccccc2)nc2c1oc1ccccc12	inconclusive: 63.1 µM [inhibitor, partial curve]
Cc1cc(/C=C2/C(=O)NN(c3ccccc3)C2=O)c(C)n1-c1cccc(O)c1	inactive
COCc1cc(C)nc2sc(C(=O)N3CCCC3)c(N)c12	inconclusive: 56.2 µM [inhibitor, partial curve]
Cc1cccc(-n2c(CCc3ccccc3)nnc2SCC(=O)c2ccccc2)c1	inconclusive: 20 µM [inhibitor, full curve, poor fit]
Cc1cccc(N2CCN(C(=O)CN3CCOc4ccccc43)CC2C)c1 (stereo not given)	inconclusive: 50.1 µM [inhibitor, partial curve]
COc1ccc(S(=O)(=O)c2cnc3cc(OC)c(OC)cc3c2N2CCCC(C)C2)cc1 (stereo not given)	inactive
NS(=O)(=O)c1cccc(NC(=S)NC(=O)C23CC4CC(CC(C4)C2)C3)c1	inconclusive: 56.2 µM [inhibitor, partial curve]
COc1ccc(C2=C(Nc3ccc(Br)c(C)c3)c3ccccc3C2=O)cc1	inconclusive: 5.01 µM [inhibitor, full curve, poor fit]

SMILES	Potency
CC[N+](CC)(CC)CCCCOc1ccc2c(c1)C(=O)c1cc(OCCCC[N+](CC)(CC)CC)ccc1-2	active: 35.5 µM
CC1=NN(Cc2ccccc2)C(=O)/C1=C\c1ccc(N(C)C)cc1	inconclusive: 14.1 µM [inhibitor, partial curve]
CCOC(=O)c1c(C)[nH]c(C)c1S(=O)(=O)N1CCCC(C(=O)N2CCN(c3ccccc3F)CC2)C1 (stereo not given)	inconclusive: 79.4 µM [inhibitor, single point]
CCOc1ccc(NC(=S)Nc2cc(-c3ccccc3)[nH]n2)cc1	inconclusive: 25.1 µM [inhibitor, partial curve]
CCc1ccc(NC(=O)Nc2cc(C(=O)O)ccc2N2CC3CC(C2)c2cccc(=O)n2C3)cc1 (stereo not given)	inactive
Cc1ccc(NC(=O)CN2C(=O)CCc3ccccc32)cc1C	inconclusive: 25.1 µM [inhibitor, full curve]
Cc1ccc(CNC(=O)CSc2c3c(nc4cc(Cl)ccc24)CCCC3)cc1	inactive
CC(C)Cn1cnc2c(c(-c3ccccc3)c(-c3ccccc3)n2Cc2ccco2)c1=N	inconclusive: 56.2 µM [inhibitor, partial curve, poor fit]
Cc1cccc(N2CCN(C(=O)c3ccc4[nH]c(C)c(C)c4c3)CC2)c1C	inconclusive: 15.8 µM [inhibitor, full curve]
CCOC(=O)C1=C(COC(=O)Cc2ccccc2)NC(=O)NC1C (stereo not given)	inactive
CCn1c(C(=O)N2CCC(C(=O)NCCCSC3CCCCC3)CC2)cc2sccc21	inconclusive: 89.1 µM [inhibitor, single point]
C(=N\N(Cc1ccccc1)c1ccccc1)/c1cccnc1	inconclusive: 44.7 µM [inhibitor, partial curve]
O=c1oc2cc(O)ccc2cc1-c1nnc(Nc2ccccc2F)s1	inconclusive: 79.4 µM [inhibitor, single point]
CCN1CCN(c2ccc(S(=O)(=O)N3CCCCC3)cc2NC(=O)COc2ccc(Cl)c(C)c2)CC1	inconclusive: 44.7 µM [inhibitor, partial curve]
O=C1C(=O)N(CCN2CCOCC2)C(c2ccccn2)/C1=C(/O)c1ccc(F)cc1 (stereo not given)	inconclusive: 5.62 µM [inhibitor, single point]
Cc1nc(CCN2C(=O)c3ccccc3C2=O)n[nH]1	active: 25.1 µM
COc1ccc(OC)c(-c2nc(C(=O)NC3CCN(Cc4ccccc4)CC3)cc3c2[nH]c2ccccc23)c1	inconclusive: 35.5 µM [inhibitor, partial curve]
CCN(C(=O)CN1CCN(c2ccc(O)cc2)CC1)c1c(N)n(Cc2ccccc2)c(=O)[nH]c1=O	inconclusive: 1.58 µM [inhibitor, full curve]
Cc1ccc(C(=O)Oc2c(S(=O)(=O)c3ccccc3)c(C)nn2-c2ccccc2)cc1	active: 14.1 µM
Cc1ccc2c(c1)C(=O)C(=O)N2CCCOc1ccccc1	active: 56.2 µM
CN1CCN(c2nc(Nc3ccc(O)cc3)nc3ccccc23)CC1	inconclusive: 39.8 µM [inhibitor, partial curve]
